The other results are listed elsewhere or left out. For some assays here: At the low end of the ranking, values are background and their order means little. For some assays here: The protein was read in a cell extract, so binding may be indirect.
target: PU.1 (IVT) (UniProt P17947); assay: protein-binding microarray (PBM); details: 20 mM HEPES pH 7.9, 100 mM NaCl, 1 mM DTT, 0.2 mg/mL BSA, 0.02% Triton X-100, 2% milk, 0.4 mg/mL salmon testes DNA; 1 h; temperature not stated; high values mean tight binding; double strand, one strand shown; sequences stand for … in GCCTAGCAC…GTGCTAGGTCTTGATTCGCTTGACGCTGCTG

Sequence	binding signal
CGAAAGAGGAAGTGCTAAAC	8.01 z-score
ATGGAGAGGAAGTGGCAGAG	3.94 z-score
TGAGAGAGGAAGTGGCAAGT	4.41 z-score
AGGAAGGGGAAGTGCTGAGC	5.36 z-score
GAAAAGAGGATGTGAACTTT	3.86 z-score
GAAAACAGTAAGTCCCATAG	0.394 z-score
TGTAAAAGGAACTGGTGTTC	1.7 z-score
AAAAAGAGGAAGTGACTTCA	8.34 z-score
TAAAAGGGGAAGTTCAGTCC	7.86 z-score
CAATGGAGGAAGTGGAGTTC	3.76 z-score
CCACAGAGGAAGTGTGGATA	2.83 z-score
TCCATGAGGAAGTGGGCTAA	4.48 z-score
AGCAAGAGGAAGTCAAGTAC	4.55 z-score
GATAAGACGAAGTCCTCTGT	-0.721 z-score
AGAAAGAGGAAGTGGAAGAG	8.16 z-score
CGAAAGGTGAAGTGCTAAAC	0.794 z-score
TGAACGAGGAAGTGCAACCA	3.42 z-score
GTAATGAGGAAGTAAATGCA	6.98 z-score
CAAGAGAGGAAGTAACAGCA	4.89 z-score
ACAAAGAGGAACTGTGCCCC	4.4 z-score

Sequence	binding signal
GGAAAGAGGAACTAGCCTTG	7.04 z-score
TAGATGAGGAAGTCGGGAAA	4.77 z-score
GAAAACAGGAAGCCCCATAG	4.09 z-score
AAAAACAGGAAGTCAACAGG	7.54 z-score
GATAAGAGGTAGTCCTCTGT	0.495 z-score
CAAAAAGGGAATTGGATGCT	1.78 z-score
GAAAAAAGGAAGTGGCAAGC	6.35 z-score
AGGGTGGGGAAGTGAAGCCG	2.78 z-score
AGATTAAGGAAGTGAGAATC	4.98 z-score
ACAAAAAGGAACTTTGCCCC	2.53 z-score
TTCATGAGGAAGTGGCTTAG	4.78 z-score
TGAAATAGGAAGTGCAACCA	3.78 z-score
GAAATTAGGAAGTACTGTGA	4.94 z-score
AACAGGAGGAAGTGAGATGT	4.34 z-score
ACAATGGAGAAGTGTCTGGG	2.01 z-score
CAAATGAGGACCTGATGCGG	0.267 z-score
CAGGAGAGGAACTGACAGGA	2.12 z-score
TGGCAGGGGAAGTGCTTTGC	3.19 z-score
TGAAGGAGGAAGTGCAACCA	4.71 z-score
GCTTTAGGGAAGTGGGGCAG	4.16 z-score

target: PU.1 (endogenous, THP-1 nuclear extract) (UniProt P17947); assay: nuclear extract protein-binding microarray (nextPBM); details: 20 mM HEPES pH 7.9, 100 mM NaCl, 1 mM DTT, 0.2 mg/mL BSA, 0.02% Triton X-100, 2% milk, 0.4 mg/mL salmon testes DNA; 1 h; temperature not stated; high values mean tight binding; double strand, one strand shown; sequences stand for … in GCCTAGCAC…GTGCTAGGTCTTGATTCGCTTGACGCTGCTG

Sequence	binding signal
CGAAAGAGGAAGTGCTAAAC	7.29 z-score
ATGGAGAGGAAGTGGCAGAG	3.48 z-score
TGAGAGAGGAAGTGGCAAGT	4.59 z-score
AGGAAGGGGAAGTGCTGAGC	6.25 z-score
GAAAAGAGGATGTGAACTTT	4.14 z-score
GAAAACAGTAAGTCCCATAG	-0.145 z-score
TGTAAAAGGAACTGGTGTTC	1.41 z-score
AAAAAGAGGAAGTGACTTCA	7.35 z-score
TAAAAGGGGAAGTTCAGTCC	7.4 z-score
CAATGGAGGAAGTGGAGTTC	3.84 z-score
CCACAGAGGAAGTGTGGATA	2.67 z-score
TCCATGAGGAAGTGGGCTAA	5.07 z-score
AGCAAGAGGAAGTCAAGTAC	4.98 z-score
GATAAGACGAAGTCCTCTGT	0.108 z-score
AGAAAGAGGAAGTGGAAGAG	7.16 z-score
CGAAAGGTGAAGTGCTAAAC	0.887 z-score
TGAACGAGGAAGTGCAACCA	3.7 z-score
GTAATGAGGAAGTAAATGCA	7 z-score
CAAGAGAGGAAGTAACAGCA	5.35 z-score
ACAAAGAGGAACTGTGCCCC	4.81 z-score

Sequence	binding signal
GGAAAGAGGAACTAGCCTTG	6.75 z-score
TAGATGAGGAAGTCGGGAAA	5.33 z-score
GAAAACAGGAAGCCCCATAG	5.19 z-score
AAAAACAGGAAGTCAACAGG	7.19 z-score
GATAAGAGGTAGTCCTCTGT	1.21 z-score
CAAAAAGGGAATTGGATGCT	1.27 z-score
GAAAAAAGGAAGTGGCAAGC	6.57 z-score
AGGGTGGGGAAGTGAAGCCG	2.65 z-score
AGATTAAGGAAGTGAGAATC	5.79 z-score
ACAAAAAGGAACTTTGCCCC	1.78 z-score
TTCATGAGGAAGTGGCTTAG	5.27 z-score
TGAAATAGGAAGTGCAACCA	4.33 z-score
GAAATTAGGAAGTACTGTGA	4.5 z-score
AACAGGAGGAAGTGAGATGT	4.26 z-score
ACAATGGAGAAGTGTCTGGG	2.55 z-score
CAAATGAGGACCTGATGCGG	0.536 z-score
CAGGAGAGGAACTGACAGGA	2.22 z-score
TGGCAGGGGAAGTGCTTTGC	3.04 z-score
TGAAGGAGGAAGTGCAACCA	5.68 z-score
GCTTTAGGGAAGTGGGGCAG	4.76 z-score

Reference: paper PMC6451091
